Here are results for 44 compounds from ChEMBL document CHEMBL4888484, “Replenishing the malaria drug discovery pipeline: Screening and hit evaluation of the MMV Hit Generation Library 1 (HGL1) against asexual blood stage Plasmodium falciparum ,using a nano luciferase reporter read-out” (2022).

The campaign covered roughly 150,000 compounds. About 540 (0.36%) showed an effect of 50% or more. Some of the results follow.

What is called % Inhibition is the change of the read-out against control, counted positive when it falls.

The test system of this test is Plasmodium falciparum. Description: Primary screen in NF54 nanoGlo assay, in single point, at 2uM, 72h; a lower Z score goes with more inhibition. It is filed as functional, Erythrocyte. The note with it: timepoint 72 hour.
For `Cn1cccc1C(=O)NCCCn1ncc2ccccc21`, the “% Inhibition” value is -5% and the Z score is 0.66.
As to `N#CCN[C@@H](C1CCCC1)C(F)(F)F`, the “% Inhibition” value is 5% and the Z score is -0.67.
Taken in the same sequence, the figures for `COCC(=O)Nc1ccc2c(c1)N(C)S(=O)(=O)N2C` were -4% and 0.57.
For `COCCc1nc(C2(c3ccccc3F)CC2)n(CC(F)(F)F)n1`, in that order: -12% and 1.31.
For `Cc1cc(F)cc(C(=O)NCCCNCc2cccnc2)c1`, in that order: -3% and 0.29.
With `O=C(NCc1ccco1)NC1CCCC1`, the “% Inhibition” value was 6% and the Z score is listed as -1.12.
For `CCCn1c(=O)[nH]c2c(c1=O)C(C)(C)Cc1ccccc1-2`, in that order: -7% and 0.78.
Taken in the same sequence, the figures for `CC(C)Cn1cncc1CNC(=O)Nc1cnns1` were -4% and 0.69.
`COC(=O)N1N=C2CCCCC2C1(O)C(F)(F)F` (stereo not drawn): the “% Inhibition” value stood at 10% and the Z score was -1.27.
Taken in the same sequence, the figures for `c1ccc2c(c1)C[C@H](CNC1CCOCC1)CO2` were -9% and 1.68.
On to `O=c1ccn(-c2ccccn2)n1CCOCC(F)F`, for which the “% Inhibition” value was 8% and the Z score is listed as -0.91.
Regarding `O=C1c2ccccc2C(=O)N1CCn1cncn1`, the “% Inhibition” value is -17% and the Z score turned out to be 1.93.
In the case of `COc1ccc([C@@H]2NC(=O)N[C@H]3OCCC[C@H]32)cc1`, the “% Inhibition” value is -10% and the Z score is 1.14.
With `O=C(COC1CCCCC1)Nc1ccc(-c2ccccc2)cn1`, the “% Inhibition” value was -10% and the Z score turned out to be 1.66.
For `CCN(C(=O)c1noc2c1CCCC2)c1cccc(C)c1`, in that order: -10% and 1.8.
Taken in the same sequence, the figures for `COc1ccc(Cl)cc1S(=O)(=O)Cc1ccc(-c2nc(-c3ccccc3C)no2)o1` were 4% and -0.59.
Taken in the same sequence, the figures for `CCc1nn(C)c(NC(=O)N[C@@H](CO)Cc2ccc(O)cc2)c1C` were -11% and 1.84.
In the case of `O=C(NCCN1CCOCC1)c1coc(CN(CCc2c[nH]c3ccccc23)Cc2cccc(F)c2)n1`, the “% Inhibition” value was -12% and the Z score was 2.04.
`CCN(CC)Cc1nc(C2(NS(=O)(=O)c3ccc(OCC(C)C)cc3)CCCC2)no1`: the “% Inhibition” value is on record as -8% and the Z score is reported as 1.35.
For `CC1(C)[C@@H](c2ccccc2F)CCN1CCO`, in that order: -9% and 0.96.
Taken in the same sequence, the figures for `Nc1cc(N2CCN(Cc3ccc4c(c3)CCO4)C[C@H](O)C2)ncn1` were 12% and -1.6.
For `Cc1ccc2[nH]cc(CCC(=O)NCC(=O)Nc3cccnc3)c2c1`, in that order: -15% and 1.65.
For `CC(C)=CCO[C@H]1COCC[C@@H]1NC(=O)c1c[nH]c(=O)[nH]1`, the “% Inhibition” value came out at 2% and the Z score is given as -0.46.
Taken in the same sequence, the figures for `C[C@H]1CCCCN1C1CN(Cc2ccc(OC(F)F)cc2)C1` were -2% and 0.47.
For `O=C(NCc1cccnc1Oc1ccc(F)cc1F)c1cccnn1`, in that order: 0% and -0.07.
For `O=C(Nc1cnnn1-c1ccccc1)N1CCn2nc(C3CC3)cc2C1`, in that order: -7% and 1.3.
For the compound `O=C1C[C@H](N2CCC3(CC2)OCCO3)C(=O)N1c1cccc(F)c1`, the “% Inhibition” value is 1% and the Z score is -0.18.
For `CCOC(Cn1ncc(C(=O)NCCc2ccccc2C)c1N)OCC`, in that order: -6% and 0.85.
Taken in the same sequence, the figures for `C[C@H](NCc1ccccc1CN1CCOCC1)c1cc(F)cc(F)c1` were 0% and 0.02.
For `COc1ccc(S(=O)(=O)CCC#N)cc1F`, the “% Inhibition” value is -13% and the Z score is recorded as 2.37.
Taken in the same sequence, the figures for `CCOC(=O)CCS(=O)(=O)NC1CCCCC1` were -6% and 0.95.
Taken in the same sequence, the figures for `CN1CCO[C@@H](CN(CCOc2cccc(C#N)c2)CCOc2cccc(C#N)c2)C1` were -5% and 0.46.
For `Fc1ccc(-c2cn(CCN3CCOCC3)nn2)cc1Cl`, in that order: -24% and 3.11.
For the compound `CC(=O)N1CC2(CCN(Cc3ccc(CC(C)C)cc3)CC2)C[C@H]1C(=O)O`, the “% Inhibition” value was -18% and the Z score turned out to be 2.34.
For `CN1CCN(c2snnc2CO)CC1`, in that order: -6% and 0.71.
Regarding `CCc1cc(CNC(=O)Cc2c[nH]c(=O)n(C)c2=O)on1`, the “% Inhibition” value is 0% and the Z score was -0.05.
For `COc1ccc(N2Cc3ccccc3OCC2=O)cc1`, in that order: -19% and 2.13.
Taken in the same sequence, the figures for `CS(=O)(=O)N1CCOC[C@H](Oc2cccnc2)C1` were -3% and 0.36.
For `CC(C)n1nc(C(=O)N2c3ccccc3C[C@@H]2C)ccc1=O`, in that order: -17% and 2.22.
Take `O=C(N[C@H]1C[C@H]2C(=O)N[C@H](CO)C(=O)N2C1)c1cccnc1Oc1ccc(Cl)cc1`: the “% Inhibition” value is reported as -10% and the Z score stood at 1.22.
Taken in the same sequence, the figures for `COc1cc(NC(=O)CCc2c(C)nn(-c3ccc(N4CCCC4)nn3)c2C)cc(OC)c1OC` were 1% and -0.21.
Taken in the same sequence, the figures for `O=S(=O)(c1cc(F)cc(F)c1)N1CCC(n2cnnc2C2CC2)CC1` were -2% and 0.36.
For `O=C(NCCc1ccc(C2CCCCC2)cc1)C1CCC(C(=O)O)NC1` (stereo not drawn), in that order: -11% and 1.09.
In the case of `COCCN1C[C@@H](Cc2nccc(N(C)C)n2)CC1=O`, the “% Inhibition” value is recorded as -5% and the Z score is 1.01.
